Reference: PMC9911399, “Two distinct binding modes provide the RNA-binding protein RbFox with extraordinary sequence specificity”
Where a chain is given by its changes, count along the chain named. The list shows a part of the results.

T1: RBFOX1 RRM (Homo sapiens, UniProt Q9NWB1 109-208)
T1 sequence: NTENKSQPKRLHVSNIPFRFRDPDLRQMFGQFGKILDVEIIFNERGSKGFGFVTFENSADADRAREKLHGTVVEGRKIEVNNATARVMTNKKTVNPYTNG

B1: ACUGGAA (DNA:RNA)
RNA: GGGAGACCGGAAUUCAGAUUGUCCACUGGAAUUAAAUCCCGUCGUAGCCACCA
DNA 1: CAATCTGAATTCCGGTCTCCC
DNA 2: TGGTGGCTACGACGGGATT
B2: CCUCGGC (DNA:RNA)
RNA: B1 RNA with A25C, G28C, A30G, A31C
DNA 1: CAATCTGAATTCCGGTCTCCC
DNA 2: TGGTGGCTACGACGGGATT
B3: CAAUUAG (DNA:RNA)
RNA: B1 RNA with A25C, C26A, U27A, G28U, G29U, A31G
DNA 1: CAATCTGAATTCCGGTCTCCC
DNA 2: TGGTGGCTACGACGGGATT
B4: AUCUCUA (DNA:RNA)
RNA: B1 RNA with C26U, U27C, G28U, G29C, A30U
DNA 1: CAATCTGAATTCCGGTCTCCC
DNA 2: TGGTGGCTACGACGGGATT
B5: CAUCUUU (DNA:RNA)
RNA: B1 RNA with A25C, C26A, G28C, G29U, A30U, A31U
DNA 1: CAATCTGAATTCCGGTCTCCC
DNA 2: TGGTGGCTACGACGGGATT
B6: CUAGGAA (DNA:RNA)
RNA: B1 RNA with A25C, C26U, U27A
DNA 1: CAATCTGAATTCCGGTCTCCC
DNA 2: TGGTGGCTACGACGGGATT
B7: GAUUUAU (DNA:RNA)
RNA: B1 RNA with A25G, C26A, G28U, G29U, A31U
DNA 1: CAATCTGAATTCCGGTCTCCC
DNA 2: TGGTGGCTACGACGGGATT
B8: CUUCCCG (DNA:RNA)
RNA: B1 RNA with A25C, C26U, G28C, G29C, A30C, A31G
DNA 1: CAATCTGAATTCCGGTCTCCC
DNA 2: TGGTGGCTACGACGGGATT
B9: UCGGGGC (DNA:RNA)
RNA: B1 RNA with A25U, U27G, A30G, A31C
DNA 1: CAATCTGAATTCCGGTCTCCC
DNA 2: TGGTGGCTACGACGGGATT
B10: CGGGUGC (DNA:RNA)
RNA: B1 RNA with A25C, C26G, U27G, G29U, A30G, A31C
DNA 1: CAATCTGAATTCCGGTCTCCC
DNA 2: TGGTGGCTACGACGGGATT
B11: ACGUCGU (DNA:RNA)
RNA: B1 RNA with U27G, G28U, G29C, A30G, A31U
DNA 1: CAATCTGAATTCCGGTCTCCC
DNA 2: TGGTGGCTACGACGGGATT
B12: ACCACUG (DNA:RNA)
RNA: B1 RNA with U27C, G28A, G29C, A30U, A31G
DNA 1: CAATCTGAATTCCGGTCTCCC
DNA 2: TGGTGGCTACGACGGGATT
B13: UGUCGAG (DNA:RNA)
RNA: B1 RNA with A25U, C26G, G28C, A31G
DNA 1: CAATCTGAATTCCGGTCTCCC
DNA 2: TGGTGGCTACGACGGGATT
B14: GCCUCCA (DNA:RNA)
RNA: B1 RNA with A25G, U27C, G28U, G29C, A30C
DNA 1: CAATCTGAATTCCGGTCTCCC
DNA 2: TGGTGGCTACGACGGGATT
B15: AGGCGAG (DNA:RNA)
RNA: B1 RNA with C26G, U27G, G28C, A31G
DNA 1: CAATCTGAATTCCGGTCTCCC
DNA 2: TGGTGGCTACGACGGGATT
B16: UACGAGC (DNA:RNA)
RNA: B1 RNA with A25U, C26A, U27C, G29A, A30G, A31C
DNA 1: CAATCTGAATTCCGGTCTCCC
DNA 2: TGGTGGCTACGACGGGATT
B17: AGGUGUC (DNA:RNA)
RNA: B1 RNA with C26G, U27G, G28U, A30U, A31C
DNA 1: CAATCTGAATTCCGGTCTCCC
DNA 2: TGGTGGCTACGACGGGATT
B18: ACGUCAG (DNA:RNA)
RNA: B1 RNA with U27G, G28U, G29C, A31G
DNA 1: CAATCTGAATTCCGGTCTCCC
DNA 2: TGGTGGCTACGACGGGATT
B19: AAAGCUG (DNA:RNA)
RNA: B1 RNA with C26A, U27A, G29C, A30U, A31G
DNA 1: CAATCTGAATTCCGGTCTCCC
DNA 2: TGGTGGCTACGACGGGATT
B20: UUUGUCG (DNA:RNA)
RNA: B1 RNA with A25U, C26U, G29U, A30C, A31G
DNA 1: CAATCTGAATTCCGGTCTCCC
DNA 2: TGGTGGCTACGACGGGATT
B21: CUUGUGA (DNA:RNA)
RNA: B1 RNA with A25C, C26U, G29U, A30G
DNA 1: CAATCTGAATTCCGGTCTCCC
DNA 2: TGGTGGCTACGACGGGATT
B22: UUUGAUU (DNA:RNA)
RNA: B1 RNA with A25U, C26U, G29A, A30U, A31U
DNA 1: CAATCTGAATTCCGGTCTCCC
DNA 2: TGGTGGCTACGACGGGATT
B23: CGGCUGG (DNA:RNA)
RNA: GGGAGACCGGAAUUCAGAUUGUCCCGGCUGGUUAAAUCCCGUCGUAGCCACCA
DNA 1: CAATCTGAATTCCGGTCTCCC
DNA 2: TGGTGGCTACGACGGGATT
B24: AUCCUUU (DNA:RNA)
RNA: B23 RNA with C25A, G26U, G27C, G30U, G31U
DNA 1: CAATCTGAATTCCGGTCTCCC
DNA 2: TGGTGGCTACGACGGGATT
B25: GGAGUAU (DNA:RNA)
RNA: B1 RNA with A25G, C26G, U27A, G29U, A31U
DNA 1: CAATCTGAATTCCGGTCTCCC
DNA 2: TGGTGGCTACGACGGGATT
B26: CACGGUU (DNA:RNA)
RNA: B1 RNA with A25C, C26A, U27C, A30U, A31U
DNA 1: CAATCTGAATTCCGGTCTCCC
DNA 2: TGGTGGCTACGACGGGATT
B27: AGAUUAG (DNA:RNA)
RNA: B23 RNA with C25A, G27A, C28U, G30A
DNA 1: CAATCTGAATTCCGGTCTCCC
DNA 2: TGGTGGCTACGACGGGATT
B28: AAACCAG (DNA:RNA)
RNA: B1 RNA with C26A, U27A, G28C, G29C, A31G
DNA 1: CAATCTGAATTCCGGTCTCCC
DNA 2: TGGTGGCTACGACGGGATT
B29: UACUAGU (DNA:RNA)
RNA: B23 RNA with C25U, G26A, G27C, C28U, U29A, G31U
DNA 1: CAATCTGAATTCCGGTCTCCC
DNA 2: TGGTGGCTACGACGGGATT
B30: GGGACGU (DNA:RNA)
RNA: B23 RNA with C25G, C28A, U29C, G31U
DNA 1: CAATCTGAATTCCGGTCTCCC
DNA 2: TGGTGGCTACGACGGGATT
B31: CCUCACU (DNA:RNA)
RNA: B1 RNA with A25C, G28C, G29A, A30C, A31U
DNA 1: CAATCTGAATTCCGGTCTCCC
DNA 2: TGGTGGCTACGACGGGATT

target: T1, RBFOX1 RRM; assay: EMSA; HiTS-Eq, 1 nM pool, 10 min; buffer printed only for the single-RNA assays: 10 mM Tris pH 7.5, 150 mM NaCl, 3.4 mM EDTA, 0.001% NP-40, 30 C; details: tags: His6 N-terminal (pET28a); label: 5' 32P
In short: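 Relative association constants, normalised to the cognate motif, were derived by comparing read counts of each RNA species with those of the control reaction. The RNA sequenced was the free fraction, separated by 8% native PAGE after a 10 min equilibration in 50 µL of 1 nM 5′-radiolabelled RNA (7 randomized nucleotides) with increasing concentrations of purified wild-type or mutant RbFox RRM.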

| Binder | binding signal |
| --- | --- |
| B1 | 0.00689 KA relative to UGCAUGU |
| B2 | 0.00992 KA relative to UGCAUGU |
| B3 | 0.00613 KA relative to UGCAUGU |
| B4 | 0.00211 KA relative to UGCAUGU |
| B5 | 0.00311 KA relative to UGCAUGU |
| B6 | 0.00837 KA relative to UGCAUGU |
| B7 | 0.00769 KA relative to UGCAUGU |
| B8 | 0.00669 KA relative to UGCAUGU |
| B9 | 0.00877 KA relative to UGCAUGU |
| B10 | 0.0369 KA relative to UGCAUGU |
| B11 | 0.00803 KA relative to UGCAUGU |
| B12 | 0.00176 KA relative to UGCAUGU |
| B13 | 0.0245 KA relative to UGCAUGU |
| B14 | 0.000745 KA relative to UGCAUGU |
| B15 | 0.0117 KA relative to UGCAUGU |
| B16 | 0.0114 KA relative to UGCAUGU |

| Binder | binding signal |
| --- | --- |
| B17 | 0.0213 KA relative to UGCAUGU |
| B18 | 0.00726 KA relative to UGCAUGU |
| B19 | 0.0111 KA relative to UGCAUGU |
| B20 | 0.0272 KA relative to UGCAUGU |
| B21 | 0.0141 KA relative to UGCAUGU |
| B22 | 0.0204 KA relative to UGCAUGU |
| B23 | 0.0236 KA relative to UGCAUGU |
| B24 | 0.00558 KA relative to UGCAUGU |
| B25 | 0.0136 KA relative to UGCAUGU |
| B26 | 0.0077 KA relative to UGCAUGU |
| B27 | 0.00902 KA relative to UGCAUGU |
| B28 | 0.000872 KA relative to UGCAUGU |
| B29 | 0.0124 KA relative to UGCAUGU |
| B30 | 0.0238 KA relative to UGCAUGU |
| B31 | 0.00295 KA relative to UGCAUGU |
